Hit rate of the full screen: of about 310,000 compounds, about 2,200 (0.71%) showed an effect of 50% or more. Effects have a minus sign here. The list shows a part of the results.

The target of the experiment is human ether-à-go-go-related gene (hERG) potassium channel (human, UniProt Q12809). Nature of the experiment: primary screen, population patch clamp on CHO cells stably expressing hERG.
Chain of human ether-à-go-go-related gene (hERG) potassium channel (Q12809 whole entry, looked up): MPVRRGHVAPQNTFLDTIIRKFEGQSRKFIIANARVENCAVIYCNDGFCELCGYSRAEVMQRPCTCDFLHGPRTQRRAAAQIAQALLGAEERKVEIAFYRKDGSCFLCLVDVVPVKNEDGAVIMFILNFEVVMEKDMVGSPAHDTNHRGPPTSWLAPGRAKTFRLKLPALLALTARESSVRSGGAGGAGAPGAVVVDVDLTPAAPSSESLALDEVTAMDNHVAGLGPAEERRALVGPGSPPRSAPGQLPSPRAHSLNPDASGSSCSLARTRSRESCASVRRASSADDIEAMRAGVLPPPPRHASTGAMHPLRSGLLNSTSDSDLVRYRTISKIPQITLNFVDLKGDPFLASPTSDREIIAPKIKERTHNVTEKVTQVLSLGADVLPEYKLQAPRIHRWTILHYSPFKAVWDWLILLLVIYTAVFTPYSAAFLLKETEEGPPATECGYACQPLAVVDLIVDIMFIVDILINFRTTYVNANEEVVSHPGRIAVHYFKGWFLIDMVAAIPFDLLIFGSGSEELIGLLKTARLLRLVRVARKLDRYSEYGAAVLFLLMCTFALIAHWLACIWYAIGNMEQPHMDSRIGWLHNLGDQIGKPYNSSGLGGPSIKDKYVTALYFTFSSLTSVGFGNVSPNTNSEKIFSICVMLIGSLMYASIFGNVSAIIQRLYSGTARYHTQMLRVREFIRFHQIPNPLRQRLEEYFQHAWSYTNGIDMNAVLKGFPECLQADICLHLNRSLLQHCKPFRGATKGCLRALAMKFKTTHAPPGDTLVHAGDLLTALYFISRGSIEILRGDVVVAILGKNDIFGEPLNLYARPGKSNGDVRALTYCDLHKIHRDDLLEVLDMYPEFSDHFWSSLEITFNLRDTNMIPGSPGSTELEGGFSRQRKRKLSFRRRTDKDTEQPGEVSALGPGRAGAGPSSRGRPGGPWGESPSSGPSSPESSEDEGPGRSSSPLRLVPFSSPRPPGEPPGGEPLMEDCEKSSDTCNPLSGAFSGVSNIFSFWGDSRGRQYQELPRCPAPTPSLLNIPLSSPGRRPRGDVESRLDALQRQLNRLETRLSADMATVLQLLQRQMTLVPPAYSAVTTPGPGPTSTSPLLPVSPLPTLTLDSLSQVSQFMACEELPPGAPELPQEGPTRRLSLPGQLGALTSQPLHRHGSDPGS
Take `COc1ccc(NC2CCCN(C(=O)c3csc(C)n3)C2)cc1` (centres unmarked): the “hERG current change (%, negative = inhibition) at 1uM” value came out at 1.29%.
The figure for `CCC(C)Cn1c(C)nc2ccccc21` (centres unmarked) is 13.4%; for `O=S(=O)(c1cccc2nonc12)N1CCN(c2ccccc2F)CC1` it is -5.98%.
For `Nc1ncc(Br)cc1N=Cc1ccccc1`, the “hERG current change (%, negative = inhibition) at 1uM” value worked out at 11.4%.
The result for `NC(=O)CC(NC(=O)c1ccccc1)c1ccc(N2CCc3ccccc3C2)c([N+](=O)[O-])c1` (centres unmarked) reads 8.88%.
The figure for `C=CCn1c(=O)c2c(nc3n2CC(C)CN3c2cccc(OC)c2)n(C)c1=O` (centres unmarked) is 5.24%; for `CCOC(=O)C1CCN(C(=O)c2cc3cc4ccc(C)cc4nc3o2)CC1` it is 13.5%; for `CCOC(=O)CSC1=NC(=O)/C(=C/c2ccc(OC)cc2)S1` it is 17%.
The figure for `O=C(O)c1cnn(-c2ccccc2)c1-n1cccc1` is 13%; for `O=C(O)CCCCCN1C(=O)C(O)=C(C(=O)/C=C/c2ccccc2)C1c1ccc2c(c1)OCO2` (centres unmarked) it is 8.57%; for `COc1ccc(NC(=S)Nc2ccccc2)cc1` it is 15.1%.
With `Nc1nc(SCC(=O)Nc2ccc(Cl)cc2)[nH]c(=O)c1-c1ccccc1`, the “hERG current change (%, negative = inhibition) at 1uM” value is 18%.
The figure for `O=C(Nc1ccc2nc(-c3cccs3)[nH]c2c1)c1cccs1` is 7.18%; for `O=C1CC(c2ccco2)CC(O)=C1C=Nc1cc(Cl)ccc1Cl` (centres unmarked) it is 6.6%.
The figure for `CC(C)Oc1ccc(C2CNC(=O)C2)cc1` (centres unmarked) is 11.4%.
With `CCN(C(=O)COC(=O)c1nc(Cl)ccc1Cl)C1CCS(=O)(=O)C1` (centres unmarked), the “hERG current change (%, negative = inhibition) at 1uM” value amounted to 9.86%.
Regarding `COc1cc(C(=S)N(C)C)ccc1O`, the “hERG current change (%, negative = inhibition) at 1uM” value was determined as 1.63%.
As to `O=C(Nc1ccc(SC(F)F)cc1)c1cc(-c2ccncc2)nc2ccccc12`, the “hERG current change (%, negative = inhibition) at 1uM” value was -2.06%.
The figure for `Cc1ccc(S(=O)(=O)N[C@H](C(=O)NCC2CCC(C(=O)O)CC2)C(C)C)cc1` (some centres unmarked) is 8.88%; for `CC(=O)Nc1ccc(-c2ccnc(-c3ccc(NC(C)=O)cc3)n2)cc1` it is 2.64%.
The figure for `Cc1cccc(C)c1NC(=O)COC(=O)c1ccccc1[N+](=O)[O-]` is 11.7%; for `CC(C)Nc1nc(Oc2ccc(=O)n(-c3ccccc3)n2)nc(N(C)C)n1` it is 9.37%; for `CC(C)CSc1nc(N2CCOCC2)c2c(c1C#N)CC(C)(C)SC2` it is 3.74%.
The result for `CCN(CC)c1ccc(NC(=O)c2ccc(=O)[nH]c2)cc1S(=O)(=O)Nc1ccccc1OC` reads 8.97%; that for `Br.COc1ccc(-c2csc(CCN3N=C(C)CC3=O)n2)cc1`, 12.5%; that for `COc1cc(NC(=O)CN2C(=O)NC(C)(c3ccc(OC(F)F)cc3)C2=O)cc(OC)c1OC` (centres unmarked), 10.6%.
`COc1ccc(-c2ccc(CCC(=O)O)n2CC(C)C)cc1`: the “hERG current change (%, negative = inhibition) at 1uM” value was 3.17%.
The figure for `C/C(=N\NC(=O)CC(C)C)c1ccc(Cl)c(Cl)c1` is 34.8%; for `CCc1ccc(OCC(=O)N2CCN(CC(=O)Nc3ccccc3Cl)CC2)cc1` it is -23.9%.
Consider `CC(C)N(C(=O)Cn1c(SCC(=O)N2CCN(c3ccccc3)CC2)nc2ccccc21)C(C)C`, for which the “hERG current change (%, negative = inhibition) at 1uM” value is given as 12.3%.
Turning to `CC(=O)CCCC(NS(=O)(=O)CCC(Cl)(Cl)Cl)c1ccccc1` (centres unmarked), the “hERG current change (%, negative = inhibition) at 1uM” value stood at 8.94%.
Regarding `Cc1ccc(NC(=O)CCC(=O)NNC(=O)c2ccco2)cc1C`, the “hERG current change (%, negative = inhibition) at 1uM” value came out at 3.97%.
The figure for `CCCCNC(=O)CC1N=C2c3ccccc3N=C(SCC(=O)Nc3ccccc3C)N2C1=O` (centres unmarked) is 5.85%; for `Cc1n[nH]c(=O)c2c(NC(=O)CSc3nnnn3-c3ccc(O)cc3)oc(C)c12` it is 17.8%; for `O=C(c1sc2ccccc2c1Cl)N(Cc1cccs1)C1CCS(=O)(=O)C1` (centres unmarked) it is 5.18%.
The figure for `COc1ccccc1N1CCN(S(=O)(=O)c2ccc(Cl)s2)CC1` is 5.51%.
For `O=C(COC(=O)c1ccccc1Cl)Nc1cccnc1Cl`, the “hERG current change (%, negative = inhibition) at 1uM” value came out at 7.73%.
The result for `Cc1ccccc1Nc1cc(C(=O)NCc2ccco2)c2ccccc2n1` reads 9.23%; that for `CC(NC(=O)/C(C#N)=C1\N=C(NC(=O)c2ccco2)c2ccccc21)c1ccccc1` (centres unmarked), 9.2%.
The figure for `COc1ccc(-c2nnc(SCC(=O)N3CCc4ccccc4C3)o2)cc1` is 1.44%; for `CCOc1ccc(CCNC(=O)c2cccc(S(=O)(=O)N3CCCC3)c2)cc1OCC` it is -8.1%; for `CC(OC(=O)c1ccco1)C(=O)NCc1ccc2c(c1)OCO2` (centres unmarked) it is 12.8%.
The result for `FC(F)(F)c1cc(-c2ccccc2)nc(N2CCCCCC2)n1` reads 11.7%; that for `CSCC[C@H](NC(=O)Nc1ccc(Oc2ccccc2)cc1)C(=O)O`, 12.3%.

These data come from PMC4336329 (PLoS ONE, 2015).
